# In publication PMC4336329 (PLoS ONE, 2015):
# Out of some 310,000 compounds screened, about 14,000 (4.5%) showed an effect of 50% or more. The effect is printed as a negative number. The list shows a part of the results.
# Target: human ether-à-go-go-related gene (hERG) potassium channel (human, UniProt Q12809)
# Assay: primary screen, population patch clamp on CHO cells stably expressing hERG
# 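Further: peak tail current of the secondary pulse compared with the same well before compound.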
# Sequence of human ether-à-go-go-related gene (hERG) potassium channel (Q12809 whole entry, looked up): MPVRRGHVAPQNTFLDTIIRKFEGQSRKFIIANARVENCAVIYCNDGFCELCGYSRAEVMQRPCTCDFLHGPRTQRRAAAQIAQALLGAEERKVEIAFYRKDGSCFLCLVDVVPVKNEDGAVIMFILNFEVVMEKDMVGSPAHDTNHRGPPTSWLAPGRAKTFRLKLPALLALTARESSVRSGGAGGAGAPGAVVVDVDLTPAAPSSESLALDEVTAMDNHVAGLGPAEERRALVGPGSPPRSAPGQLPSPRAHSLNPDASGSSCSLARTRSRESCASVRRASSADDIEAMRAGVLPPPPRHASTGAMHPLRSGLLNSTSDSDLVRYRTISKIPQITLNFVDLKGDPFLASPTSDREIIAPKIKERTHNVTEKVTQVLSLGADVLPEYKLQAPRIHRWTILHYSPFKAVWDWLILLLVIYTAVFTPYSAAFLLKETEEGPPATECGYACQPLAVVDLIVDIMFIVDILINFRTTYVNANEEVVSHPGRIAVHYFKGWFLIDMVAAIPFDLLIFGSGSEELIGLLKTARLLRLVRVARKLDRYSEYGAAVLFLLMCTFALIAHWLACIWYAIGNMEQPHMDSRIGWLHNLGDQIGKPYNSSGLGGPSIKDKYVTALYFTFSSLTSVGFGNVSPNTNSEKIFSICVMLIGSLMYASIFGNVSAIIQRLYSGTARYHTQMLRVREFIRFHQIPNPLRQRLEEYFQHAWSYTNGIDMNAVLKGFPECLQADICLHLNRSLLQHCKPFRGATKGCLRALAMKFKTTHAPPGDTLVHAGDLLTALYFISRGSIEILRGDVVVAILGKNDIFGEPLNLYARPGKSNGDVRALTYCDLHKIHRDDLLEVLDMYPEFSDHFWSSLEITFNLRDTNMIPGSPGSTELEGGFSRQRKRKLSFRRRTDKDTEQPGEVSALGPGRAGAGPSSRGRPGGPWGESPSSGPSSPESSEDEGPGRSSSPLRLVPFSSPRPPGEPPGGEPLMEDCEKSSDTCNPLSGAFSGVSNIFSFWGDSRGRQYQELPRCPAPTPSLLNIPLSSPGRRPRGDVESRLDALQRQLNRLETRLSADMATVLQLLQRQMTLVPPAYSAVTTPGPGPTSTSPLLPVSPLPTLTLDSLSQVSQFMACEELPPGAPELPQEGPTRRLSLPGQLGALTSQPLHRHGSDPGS
row,Compound,"hERG current change (%, negative = inhibition) at 10uM"
1,CCCn1nnc(NC(=O)Cc2ccc(Cl)cc2)n1,-0.341%
2,Cc1cc(OCC(=O)N[C@@H](CSCc2ccccc2)C(=O)O)c2c(C)c(C)c(=O)oc2c1,11.1%
3,CN(Cc1ccccc1)C(=O)c1cccc(C(=O)N(C)Cc2ccccc2)c1,-3.07%
4,COc1ccc(C2CC(c3ccccc3OC(=O)/C=C/c3ccccc3)=NN2C(C)=O)cc1 (stereo not shown),4.55%
5,O=C(O)C1CCCCC1C(=O)Nc1ccccc1F (stereo not shown),7.88%
6,N#CC(c1ccc(O)cc1)N1CCCCC1 (stereo not shown),3.97%
7,COc1ccccc1-c1nnc(SCc2nc3ccccc3s2)n1C,-17%
8,CC(C(=O)O)N1c2cccc3cccc(c23)S1(=O)=O (stereo not shown),4.58%
9,C/C(=N\NC(=O)c1ccc2ccccc2c1)c1cccs1,9.65%
10,O=[N+]([O-])c1ccccc1Sc1nccn1Cc1ccccc1,-21.6%
11,CC(=O)N1CCN(C(=O)c2ccc3c(c2)OCCO3)CC1,10.9%
12,O=C(c1cncc(Br)c1)N1CCc2ccccc2C1,-14.3%
13,COc1cccc(N2CCN(C(=O)CNC(=O)c3sc4ccccc4c3Cl)CC2)c1,3.15%
14,COc1ccc(NC(=O)c2cc(-c3ccc(C)o3)nc3ccccc23)cc1OC,7.52%
15,O=C(NC(=S)Nc1ccccc1Cl)c1cnn2c(C(F)(F)F)cc(C(F)(F)F)nc12,11.5%
16,CC(C)CC(=O)Nc1ccc2oc(-c3cccnc3)nc2c1,-3.14%
17,N#C/C(=C\c1cccc([N+](=O)[O-])c1)C(=O)Nc1cccnc1,21.3%
18,CCOC(=O)c1c(C)nc2sc3c(=O)n(-c4ccc(C(C)=O)cc4)nnc3c2c1-c1ccc(Cl)cc1,6.84%
19,Cl.FC(F)(F)c1cccc(Nc2ncnc3ccccc23)c1,-4.41%
20,CCOc1ccc(NC(=O)CN(C)CC(=O)Nc2cc(Cl)ccc2C#N)cc1OCC,-1.68%
21,COc1cc(C(=O)OCC(=O)Nc2ccc(C(C)=O)cc2)ccc1OCC(=O)N1CCOCC1,6.64%
22,CCOC(=O)CN(C(=O)CSc1nnc2c(n1)[nH]c1ccc(OC)cc12)c1ccc(F)cc1,-23.4%

row,Compound,"hERG current change (%, negative = inhibition) at 10uM"
1,CN1C(=O)c2ccccc2NC(=O)[C@]12O[C@@H]2c1cccc(O)c1,6.76%
2,COc1ccc(CN2C(=O)c3cccnc3C2=O)cc1S(=O)(=O)NC(C)C,15%
3,CCN(CC(=O)Nc1ccc(NC(C)=O)cc1)C(=O)CN1C(=O)C2CCCCC2C1=O (stereo not shown),7.85%
4,O=[N+]([O-])c1ccc(/C=C/C2=NN(c3ccccc3)C(c3ccco3)C2)cc1 (stereo not shown),27.5%
5,Cc1nn(Cc2ccccc2)c(C)c1NC(=O)c1cc2nc(-c3ccco3)cc(C(F)(F)F)n2n1,-11.1%
6,Cc1cc(C)c2nc(N3CCC(C(=O)N4CCN(c5ncccn5)CC4)CC3)sc2c1,-0.141%
7,COCCN1Cc2cccc(C(=O)Nc3ccc(S(=O)(=O)N4CCOCC4)cc3)c2C1=O,27.3%
8,O=C1S/C(=C/c2ccccc2F)C(=O)N1CCN=C1NS(=O)(=O)c2ccccc21,12.6%
9,COc1ccc(-c2nnc(SCC(=O)Nc3ccc(C(=O)O)cc3)n2-c2ccc(Cl)cc2)cc1,-1.64%
10,CN(C)S(=O)(=O)c1ccc2c(c1)C(CC(=O)O)OC2=O (stereo not shown),15.4%
11,COC(=O)C1=C(C)NC(=O)CC1c1ccccc1 (stereo not shown),-6.97%
12,CCN(CC)C(=O)COc1ccc(-c2nnc(Nc3ccc(OC)c(C(=O)NC)c3)c3ccccc23)cc1,16.9%
13,CCCc1nc2ccccc2n1Cc1ccccc1OC,-14.1%
14,COCC(=O)N(Cc1ccco1)c1nnc(C2CCOC2)s1 (stereo not shown),9.58%
15,CCn1cc(C(=O)N(C)Cc2ccc(OC(F)F)cc2)c(=O)c2ccc(C)nc21,-65.1%
16,CCn1cc(C(=O)NCc2ccccc2F)c(=O)c2ccc(C)nc21,19.1%
17,O=C(NCCN1C(=O)S/C(=C\c2cccc(Cl)c2Cl)C1=O)C1=COCCO1,-43.9%
18,CCN(CC(=O)Nc1ccc(OC)cc1)C(=O)c1oc2c(Cl)cccc2c1C,13.5%
19,COc1ccccc1NC(=O)CSc1nnnn1-c1ccc(C)cc1,-4.29%
20,CCCCCN(C(=O)CCCSc1nncs1)c1c(N)n(CCCC)c(=O)[nH]c1=O,17.3%
21,O=C(O)CCCC(=O)Nc1ccc(-n2ccc(C(F)(F)F)n2)cc1,13.9%
